Data taken from the supplement of paper PMC11417369.
The other results are listed elsewhere or left out.

Test system: PfSIP2 AP2 domain 1 (GST-tagged)
Experiment: gcPBM binding intensity (ln(normalized median fluorescence intensity)); higher = stronger DNA binding
Outline: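 GST-fused DNA-binding domains of P. falciparum, expressed in E. coli, were applied at about 25 μg on average for 1 h to an Agilent 4 × 180k array of primer-extended double-stranded 36-bp intergenic genomic probes and negative controls. Binding intensity is the highest Masliner-normalised natural-log median intensity across replicate spots of either probe orientation, measured with Alexa488 anti-GST antibody and a 488 nm scan.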

Row | Sequence | gcPBM binding intensity (ln)
1 | AATAATAACAAATGAACACACATATAGATGAGCAAA [CACACA_site7076] | 6.81
2 | CTTAAGTAAAATTAAAGTACATGGACAAAAAATATA [XGTACX_site7900] | 7.2
3 | TATCTCATGCGCACAAAAATATATGCAAAGAGTATA [TGCATGCA_negctrl_site201] | 8.21
4 | TATTGTAGTCATGCACGTACAAAAGGAAAGTTAAAA [XGTACX_site4446] | 7.24
5 | ATAAATTAATGGAGAAATCTTATGAATTTATTTTAA [CACACA_negctrl_site1068] | 6.53
6 | AAATAAAATATTACATGTACATGTTCATAAAAAAAA [XGTACX_site1067] | 6.98
7 | TACATACACAGACACACACACATATATATATATATA [CACACA_site3557] | 9.82
8 | AATAAAAAGGAACACACACACACACCGATATATATA [CACACA_site5895] | 7.16
9 | AATATATACATATATACACACACATATATTATATAT [CACACA_site7980] | 7.09
10 | TAAATATAAGTGTACATACACACTTTACAATCTCAT [CACACA_site3006] | 6.97
11 | AAAGAAGAAAAATATAGTACAGGGCACATGTCCTGT [XGTACX_site6293] | 6.67
12 | AAAAAAAAAAAAATTGCATGTAAATGAAATAATAAA [TGCATGCA_site116] | 6.89
13 | ATTTAAATTTAAAAAACACACATAATATGATATATA [CACACA_site1973] | 7.04
14 | TTATTTTTATATTTCACACACATATACTTTTACATA [CACACA_site4097] | 7.28
15 | CCTATAAAACCATATACACACATATATATAAAAAAA [CACACA_site4013] | 7.21
16 | TGTTTCTAAAAATTTACACACAAAATATTTCTACAT [CACACA_site4098] | 6.98
17 | TTATACGATAATATGACACACAATACAAAAATGTAA [CACACA_site1918] | 6.89
18 | TATATTTTTATGTGTGTGCACAAAATAACAAAATAT [GTGCAC_site9596] | 9.36
19 | ATTATTTTTTTTGAAGTGCAATATTATTTTTAATCA | 8.2
20 | GTTAAGTGGATATATACACACATATGCAATACATGA [CACACA_site7427] | 6.95
21 | TATACTACCCAGAGCTGTACAAAATAATAATAAGTT [XGTACX_site1045] | 7.06
22 | ATGGTTATATTTGAAGTGCAAAAAAAAATATATGTA | 8.55
23 | ATGTGGATTTTATAATGTACATATGATATTATTTTG [XGTACX_site7930] | 7.01

Row | Sequence | gcPBM binding intensity (ln)
24 | CAATTCAATATATATACACACACACTATTAATAATT [CACACA_site9256] | 7.03
25 | ATTCCTTTATTATCACGTACTTATAAAATATAGTAT [XGTACX_site7498] | 7.81
26 | ATAAACAGATAAAAGGGTACACACATATATACATGT [XGTACX_site452] | 7.08
27 | TTATATATATATTGTTCACACATAATATAAATATTT [CACACA_site5835] | 6.81
28 | TTAAATAAAATAAAAACATGCACACTTTATTTTTTT [TGCATGCA_site719] | 9.94
29 | TTTTAATAAATCATTTTCCTAATATTTATATTTGCT [TGCATGCA_negctrl_site232] | 6.71
30 | TTTTTCATTTAGCTTTTACACACTATATATTATTGA [CACACA_site7888] | 7.16
31 | CTCTTTTCTTATAATACACACAGTAATATTTATATA [CACACA_site6824] | 7.53
32 | AATAAAAAAAATTTCTGTACATATATTTATTATATA [XGTACX_site1883] | 6.93
33 | CAAACCCACCAACACACACACACAAAAATGATTAAA [CACACA_site2432] | 7.14
34 | TACTTTTTTATTTGGTGTACAAATAAAATCATAATG [XGTACX_site1802] | 7.26
35 | GAAGATATATAATAATTCATAGTTTTTTAATTTAAA [TGCATGCA_negctrl_site295] | 6.52
36 | ATATATTTTGATTGCACACAGAATTTAAATCATGAT [CACACA_site2343] | 7.18
37 | AAAATAAAAAAAATAAATAAAAAAAATAATAATAAA [CACACA_negctrl_site563] | 6.55
38 | TCATAAATATAAAGTGTGCACTTGAATAATATGTAT | 9.52
39 | TAAATAAATCTGTGCTTGCACTTTTTTTGTTATTTT | 7.74
40 | ATATAAACATATAATAGTACACTTCGATAATTTTAT [XGTACX_site3321] | 7.09
41 | ATTTAACATATAAAATGTACATATATATATATATTT [XGTACX_site2525] | 7.15
42 | GTACCATCAAAATAAATATATATATATATATATTTT [GTGCAC_negctrl_site646] | 7.57
43 | TTTGTGTTGTATTTTTGTACATAAAATAAACTTAAA [XGTACX_site4637] | 7.16
44 | TTTCTTTTTTCTTCAGTGCATTAAAATTAACAAAAG | 9.07
45 | GAGCCCAAAAAATTAGGTACGTATAAAGAGGTATTT [XGTACX_site5348] | 6.79
46 | CATATATATATTGGAAGTACATATTTAATATTCATT [XGTACX_site3545] | 6.99

Row | Sequence | gcPBM binding intensity (ln)
47 | AGGAAAATTTTATTTGCACACATTATTACGTCTAAA [CACACA_site2337] | 7.01
48 | TCTTTTTTCATATTTTCACACATGTCTTTATATTTA [CACACA_site6025] | 7.17
49 | ACATGTAATATAATGTGTACATATACAAAGGTATAT [XGTACX_site4145] | 7.2
50 | ATAAAGTATATTATATGTACATATATATATTATATA [XGTACX_site1345] | 7.18
51 | AGATGAGAAATATATACACACAATAATACCTATTTA [CACACA_site876] | 6.85
52 | ATATAACATAGACACACACACATATAAATATATTAT [CACACA_site7865] | 7.2
53 | CTTTATAAAATAAGAGTGCGTTATATTGAATTGTAT [GTGCAC_site9390] | 8.26
54 | ATATAAGATTTAAGAAGTACAATTATACAGTAGATC [XGTACX_site7501] | 7.18
55 | ACGTTTTATAATTAATGTACAAATATTAAAATTGCA [XGTACX_site7869] | 7.11
56 | GAATAAATTAAAAATGCACACTTTGATGGGTACATT [CACACA_site5220] | 7.11
57 | TATATTTGCAGTAATAATAATTATTATAAAAGATAA [XGTACX_negctrl_site547] | 7.04
58 | TTATTTATTTTAAATTCACACATCGTGCTATTATAT [CACACA_site5003] | 7.87
59 | TCATATATTTATGTATGTACATATATATATAGATTA [XGTACX_site380] | 7
60 | TATGAATGGTTAAGTACACACATATTAAGATATGTA [CACACA_site5852] | 6.99
61 | TTTTTATAACGTAATAAATAAAACGTCTATACTATA [XGTACX_negctrl_site176] | 6.77
62 | AAAAATATAATATAATGTACACAAAAAAAAAAATTC [XGTACX_site3657] | 7.25
63 | AATTAGACATAATATACACACATATATTATAGATAT [CACACA_site7297] | 7.04
64 | TATATTATTATAATTTGTACATATCTAATTATATAT [XGTACX_site5342] | 6.96
65 | TAAAGATATTATTTTTGTACATATTGATATAATGAA [XGTACX_site6571] | 6.76
66 | AATGATAATATTTCCTTCTTTTTTACTTCTTTCTTT [CACACA_negctrl_site776] | 6.79
67 | AAAATGGTTTATAAATGTACATATATTATATATAAC [XGTACX_site7959] | 7.03
68 | CCTATCCAGACATATACACACATATCTATTTATATA [CACACA_site5001] | 7.34
69 | TATAAAAAATAATACACACACATGGCGACAAAATAA [CACACA_site2420] | 7.18

Row | Sequence | gcPBM binding intensity (ln)
70 | TTTACTTTCCCAAGTTGTACTGCTTCTAAGCTTTTT [XGTACX_site2708] | 6.84
71 | CATATAAAATAATTCACACAAATATACAAATACCCA [CACACA_site5340] | 6.94
72 | AAAAAAAATTTCTTCTGTACGCATAAATTTTTATTA [XGTACX_site8721] | 7.21
73 | TATTTAATTTTTAAATGTACATATAAAATAATATAT [XGTACX_site2422] | 7.03
74 | TTTTTCAGAAAAGAAACACACATATATATATTTATA [CACACA_site2372] | 6.98
75 | CTCAAAGGAATATTCACACATAAATTATAGACTACA [CACACA_site6050] | 7.04
76 | TAATTATATTCACTTGCTATATAAATTATATATATT [CACACA_negctrl_site526] | 6.94
77 | ATACACACTCAAAAAAGTACTTAACTACATGAATTG [XGTACX_site6366] | 7.08
78 | GTATATATATATATATGCAAATGTATAAATCTACAT [CACACA_negctrl_site546] | 7.35
79 | AAGAAAAAAATATATGTTTATTTACTTTAATAATTT [TGCATGCA_negctrl_site168] | 6.7
80 | TATATATAAATATGCTGTACGTTTTAATACGTTAAG [XGTACX_site2378] | 7.24
81 | GATAAATTAAAACACACACACATATATATATATATA [CACACA_site3962] | 9.63
82 | AAAAAAATAGTCTTCTTGCACTTTTTAATTTATTTT | 7.3
83 | TTATAATAAAATGAATATATATAATTTAAAATATTT [CACACA_negctrl_site1651] | 6.83
84 | AAAAAAAGTTATATTACACACTTTATTCGTTAACTT [CACACA_site3013] | 6.7
85 | ATATTTATGAAGTTCACACATATATATATATATATA [CACACA_site5954] | 9.55
86 | ACAACAATATTTGAATGTACTCTATTTTCGTTGTTC [XGTACX_site593] | 6.96
87 | AAGGAAAACAATAGGTGTACCAAACGTCCTAGGAAC [XGTACX_site5732] | 6.7
88 | TTTCTTCATTTTTTCACACATAAGAAAATATAATCA [CACACA_site4275] | 7.3
89 | TAAAAAAATAAAATTACACACATATATAAATATATA [CACACA_site2620] | 6.75
